Further values from the same series stand in other lists.
What was measured:
Rat [1] = test: concentration in brain after dosing; conditions: 2.5 h; dosed: 2-Methyltetrahydrofuran; 10 mg/kg; oral; Female; F344
Rat [2] = test: concentration in brain after dosing; conditions: 5 min; dosed: 2-Methyltetrahydrofuran; 10 mg/kg; iv; Male; F344
Rat [3] = test: concentration in brain after dosing; conditions: 4 min; dosed: 2-Methyltetrahydrofuran; 30 mg/kg; oral; Female; F344
Rat [4] = test: concentration in brain after dosing; conditions: 0.25 h; dosed: 2-Methyltetrahydrofuran; 10 mg/kg; oral; Female; F344
Rat [5] = test: concentration in brain after dosing; conditions: 4 min; dosed: 2-Methyltetrahydrofuran; 30 mg/kg; oral; Male; F344
Rat [6] = test: concentration in brain after dosing; conditions: 0.5 h; dosed: 2-Methyltetrahydrofuran; 30 mg/kg; oral; Male; F344
Rat [7] = test: concentration in brain after dosing; conditions: 3 h; dosed: 2-Methyltetrahydrofuran; 30 mg/kg; oral; Male; F344
Rat [8] = test: concentration in brain after dosing; conditions: 10 min; dosed: 2-Methyltetrahydrofuran; 30 mg/kg; oral; Male; F344
Rat [9] = test: concentration in plasma after dosing; conditions: 5 min; dosed: 2-Methyltetrahydrofuran; 10 mg/kg; iv; Female; F344
Rat [10] = test: concentration in plasma after dosing; conditions: 20 min; dosed: 2-Methyltetrahydrofuran; 10 mg/kg; iv; Male; F344
Rat [11] = test: concentration in plasma after dosing; conditions: 5 min; dosed: 2-Methyltetrahydrofuran; 400 mg/kg; oral; Male; F344
Rat [12] = test: concentration in plasma after dosing; conditions: 1.5 h; dosed: 2-Methyltetrahydrofuran; 100 mg/kg; oral; Male; Harlan Sprague Dawley
Rat [13] = test: concentration in plasma after dosing; conditions: 10 min; dosed: 2-Methyltetrahydrofuran; 100 mg/kg; oral; Male; Harlan Sprague Dawley
Rat [14] = test: concentration in plasma after dosing; conditions: 4 min; dosed: 2-Methyltetrahydrofuran; 10 mg/kg; oral; Female; F344
Rat [15] = test: concentration in plasma after dosing; conditions: 0.75 h; dosed: 2-Methyltetrahydrofuran; 30 mg/kg; oral; Male; F344
Rat [16] = test: concentration in plasma after dosing; conditions: 8 min; dosed: 2-Methyltetrahydrofuran; 30 mg/kg; oral; Male; F344
Rat [17] = test: concentration in plasma after dosing; conditions: 20 min; dosed: 2-Methyltetrahydrofuran; 30 mg/kg; oral; Male; F344
Rat [18] = test: concentration in plasma after dosing; conditions: 40 min; dosed: Bromochloroacetic acid; 10 mg/kg; iv; Male; F344
Rat [19] = test: concentration in plasma after dosing; conditions: 20 min; dosed: Bromochloroacetic acid; 10 mg/kg; iv; Male; F344
Rat [20] = test: concentration in plasma after dosing; conditions: dosed: Bromochloroacetic acid, 40 mg/kg, oral, Female, F344
Rat [21] = test: concentration in plasma after dosing; conditions: dosed: Fluorotelomer alcohol 8+2, 80 mg/kg, oral, Female, Harlan Sprague Dawley
Rat [22] = test: concentration in plasma after dosing; conditions: dosed: Fluorotelomer alcohol 8+2, 40 mg/kg, oral, Female, Harlan Sprague Dawley
Rat [23] = test: concentration in plasma after dosing; conditions: dosed: Formamide, 90 mg/kg, iv, Male, Harlan Sprague Dawley
Rat [24] = test: concentration in plasma after dosing; conditions: dosed: Formamide, 90 mg/kg, iv, Male, Harlan Sprague Dawley; remark: listed apart in the source
Rat [25] = test: concentration in plasma after dosing; conditions: dosed: Formamide, 300 mg/kg, oral, Female, F344
Rat [26] = test: concentration in plasma after dosing; conditions: dosed: Formamide, 600 mg/kg, oral, Female, Harlan Sprague Dawley
Rat [27] = test: concentration in plasma after dosing; conditions: dosed: Formamide, 36 mg/kg, oral, Male, Harlan Sprague Dawley
Rat [28] = test: concentration in plasma after dosing; conditions: dosed: Formamide, 90 mg/kg, iv, Male, Harlan Sprague Dawley; remark: listed apart in the source
Rat [29] = test: concentration in plasma after dosing; conditions: dosed: Formamide, 90 mg/kg, iv, Male, Harlan Sprague Dawley; remark: listed apart in the source
Rat [30] = test: concentration in plasma after dosing; conditions: dosed: Formamide, 300 mg/kg, oral, Female, Harlan Sprague Dawley
Rat [31] = test: concentration in plasma after dosing; conditions: 50 min; dosed: Pyridine; 10 mg/kg; iv; Male; Harlan Sprague Dawley
Rat [32] = test: concentration in plasma after dosing; conditions: 40 min; dosed: Pyridine; 200 mg/kg; oral; Female; Harlan Sprague Dawley
Rat [33] = test: concentration in plasma after dosing; conditions: 20 min; dosed: Pyridine; 200 mg/kg; oral; Female; Harlan Sprague Dawley
Rat [34] = test: concentration in plasma after dosing; conditions: dosed: Pyridine, 100 mg/kg, oral, Female, F344
Rat [35] = test: concentration in plasma after dosing; conditions: 0.25 h; dosed: Pyridine; 10 mg/kg; iv; Male; Harlan Sprague Dawley
Rat [36] = test: concentration in plasma after dosing; conditions: 40 min; dosed: Pyridine; 10 mg/kg; oral; Female; Harlan Sprague-Dawley
Rat [37] = test: concentration in plasma after dosing; conditions: dosed: Pyridine, 5 mg/kg, oral, Female, F344

CC1CCCO1 (stereo not given) [2-Methyltetrahydrofuran]
Conditions	concentration in brain [µg/g]	concentration in plasma [ng/mL]
Rat [1]	0.0304	–
Rat [2]	5.21	–
Rat [3]	6.46	–
Rat [4]	3.05	–
Rat [5]	9.6	–
Rat [6]	14.2	–
Rat [7]	2.08	–
Rat [8]	13.5	–
Rat [9]	–	11600
Rat [10]	–	8800
Rat [11]	–	256000
Rat [12]	–	45500
Rat [13]	–	59100
Rat [14]	–	5380
Rat [15]	–	12800
Rat [16]	–	14600
Rat [17]	–	20000

O=C(O)C(Cl)Br (stereo not given) [Bromochloroacetic acid]
Conditions	concentration in plasma [ng/mL]
Rat [18]	261
Rat [19]	1500

Rat [20]
Conditions	concentration in plasma [ng/mL]
0.25 h	6000
3 h	3400

OCCC(F)(F)C(F)(F)C(F)(F)C(F)(F)C(F)(F)C(F)(F)C(F)(F)C(F)(F)F [Fluorotelomer alcohol 8+2]
concentration in plasma [ng/mL]
Conditions	1 h	5 min	9 h	24 h
Rat [21]	–	14.8	244	–
Rat [22]	479	–	–	2.4

NC=O [Formamide]
Conditions	concentration in plasma [ng/mL]
Rat [23], 10 min	150000
Rat [23], 18 h	54700
Rat [24], 8 h	98600
Rat [24], 12 h	86900
Rat [25], 2 h	230000
Rat [25], 5 min	97400
Rat [26], 2 h	692000
Rat [26], 5 min	138000
Rat [27], 8 h	40800
Rat [27], 12 h	30600
Rat [28], 0.5 h	149000
Rat [28], 48 h	4800
Rat [29], 8 h	93300
Rat [29], 12 h	88200
Rat [30], 0.25 h	143000
Rat [30], 5 h	241000

c1ccncc1 [Pyridine]
Conditions	concentration in plasma [ng/mL]
Rat [31]	4070
Rat [32]	96500
Rat [33]	106000
Rat [35]	4180
Rat [36]	1470

concentration in plasma [ng/mL]
Conditions	2 h	4 h	5 min	14 h
Rat [34]	59900	–	–	51300
Rat [37]	–	2740	2200	–
